Assay results published in the supplement of paper PMC3334620.
Over roughly 33,000 sequences, “E-score (-0.5 to 0.5)” has its median near -0.016; the highest 2% begin near 0.32. The list shows a part of the results.

Target: T1, Stp1 (UniProt B3LFK1)
T1 sequence: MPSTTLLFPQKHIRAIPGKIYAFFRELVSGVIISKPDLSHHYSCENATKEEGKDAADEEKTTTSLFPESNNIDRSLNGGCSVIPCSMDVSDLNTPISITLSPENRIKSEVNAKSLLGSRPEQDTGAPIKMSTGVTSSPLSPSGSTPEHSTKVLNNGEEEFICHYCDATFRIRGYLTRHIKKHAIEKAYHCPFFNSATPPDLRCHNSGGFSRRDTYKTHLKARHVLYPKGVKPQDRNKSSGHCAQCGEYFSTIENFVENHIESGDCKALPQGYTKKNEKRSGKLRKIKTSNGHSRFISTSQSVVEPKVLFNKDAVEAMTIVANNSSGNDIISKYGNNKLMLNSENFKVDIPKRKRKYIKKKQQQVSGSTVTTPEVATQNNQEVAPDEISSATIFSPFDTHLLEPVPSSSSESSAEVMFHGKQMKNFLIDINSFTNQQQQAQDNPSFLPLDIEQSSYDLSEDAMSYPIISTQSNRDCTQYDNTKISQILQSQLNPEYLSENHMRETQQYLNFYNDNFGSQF
Assay: PBM E-score (8-mer binding enrichment) (E-score (-0.5 to 0.5)); higher = stronger / more preferred TF binding; most listed sequences are background and not binding sites
Conditions: protein concentration: 200 nM; construct: GST-full length
Method: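 Universal 'all 10-mer' protein binding microarrays (Agilent AMADID 015681) probed with GST-tagged S. cerevisiae TFs (full-length or DBD) made by in vitro transcription/translation (PURExpress), about 100-200 nM. Bound TF was detected with fluorescent anti-GST. Each ungapped 8-mer (which stands for itself and its reverse complement) is scored by the PBM enrichment score (E-score), a modified Wilcoxon-Mann-Whitney statistic from -0.5 to +0.5, computed with the Universal PBM Analysis Suite. Scale: above 0.35 generally sequence-specific binding.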

Row | Sequence | PBM E-score
1 | GGTCCTCA | -0.224
2 | AATCATGT | -0.0694
3 | ACACATCA | -0.115
4 | ACAGACCG | -0.158
5 | GAGGGGAC | -0.204
6 | CATTACCG | -0.0915
7 | CGATTAAC | 0.111
8 | CCCGTCTA | -0.0264
9 | CATGAGTA | 0.0433
10 | AGCTTCGA | -0.146
11 | AGGATTCG | -0.0348
12 | ACTTAAGT | 0.131
13 | ATTGTGCG | 0.161
14 | ACAGAGCG | -0.124
15 | TCTGGACA | -0.198
16 | ACTGTCTC | -0.127
17 | CTAAAGTA | -0.151
18 | GGTGTACA | -0.0392
19 | AACGCCTC | 0.225
20 | CCAGTAAC | -0.183
21 | CCAATTTA | 0.214
22 | AGAATGGA | 1e-05
23 | CTTCCCCA | -0.202
24 | ATTGCCGA | 0.177
25 | CTATATAG | -0.0268

Row | Sequence | PBM E-score
26 | AGCCTGCA | -0.0863
27 | TTCATGAA | 0.095
28 | GCGTGTGA | 0.0615
29 | CTGTGTGA | 0.154
30 | CATTGCGG | 0.158
31 | AACGACCT | -0.072
32 | CAGGGGCG | -0.115
33 | ATCGCAAG | -0.0187
34 | CGCTTATC | -0.00336
35 | ACAACCTC | 0.0654
36 | ACCCGTAG | -0.36
37 | CATGGGGG | -0.316
38 | TGCCGGCA | 0.195
39 | AAAGCAGG | -0.101
40 | GGTTGGTA | 0.138
41 | GCATCCCA | -0.163
42 | GGAGTAAC | -0.0602
43 | AGCGATCA | -0.165
44 | CGCTACCG | -0.0922
45 | GGTCTCTA | -0.283
46 | AGCATAGC | -0.286
47 | CAGCGCGA | -0.0618
48 | TACTGAGA | -0.0462
49 | ACTTCTTA | 0.0494
50 | AAAAATCG | -0.0478

Row | Sequence | PBM E-score
51 | AAGCTCCT | -0.271
52 | AAACGGGA | 0.00151
53 | AAGTTCCG | 0.125
54 | GTGCAGGA | -0.209
55 | CTATGATA | 0.152
56 | CAGCTCTA | -0.153
57 | GCCCCGAA | -0.0149
58 | TCGGTAGA | -0.0266
59 | CAGTCTAA | 0.122
60 | TGACCCCA | -0.298
61 | AGTTAACG | 0.0353
62 | ACGGGCTG | -0.156
63 | GGCTAGCC | -0.197
64 | GGCCGTTA | 0.1
65 | GGGGGGCA | -0.344
66 | GTCGTTTA | 0.0978
67 | ACCCCAGT | -0.229
68 | AGATGATG | -0.0725
69 | CAGGAAGG | -0.0876
70 | CTTCCATA | -0.0335
71 | CAGGTAGA | -0.174
72 | GCTCACTA | -0.18
73 | AATTACCT | -0.0199
74 | CTTAGCTC | -0.116
75 | GGGCATTA | 0.139

Row | Sequence | PBM E-score
76 | CCTTCCAC | -0.0469
77 | ACAGTGAG | -0.189
78 | ACCGGCAC | 0.301
79 | CTTAGACC | -0.0741
80 | AGAGGGAG | -0.306
81 | AAAATCTT | 0.02
82 | AAGGTACC | -0.145
83 | GTTACAAA | 0.134
84 | CCAGCGCA | -0.117
85 | AGGGGCTC | -0.235
86 | GCCCAGTA | -0.14
87 | TACCCTCA | -0.124
88 | GACGAACC | -0.173
89 | ATGGTAGC | -0.0618
90 | CCTCTTCC | -0.17
91 | ACTTGTAC | 0.0123
92 | AGGAGGCG | 0.201
93 | GAGGCACA | 0.332
94 | TAAGCGTA | 0.018
95 | CGCGGTTC | 0.0607
96 | CAGCTGAC | 0.0168
97 | CACACTCG | 0.0209
98 | ACGGCAGT | 0.403
99 | CGTTGTGC | 0.0391
100 | AAGGCGAC | 0.224

Row | Sequence | PBM E-score
101 | CTATCGGC | -0.0112
102 | ATTCCTTC | 0.0787
103 | GAGATATA | 0.105
104 | ATCCACAA | -0.0164
105 | GCAGGAGC | -0.0737
106 | CACGTCGC | -0.125
107 | ACACCATG | -0.135
108 | CCAAACAA | 0.0612
109 | GGAAACAA | -0.169
110 | ACGAATAC | -0.024
111 | AGTTGTGA | 0.141
112 | AATACGGC | 0.453
113 | ACACTAAT | 0.138
114 | CGGCTGTC | 0.129
115 | CCCCTGTA | -0.197
116 | AACAATCC | 0.108
117 | CAATCAAA | 0.06
118 | AGACTCTA | -0.159
119 | CCCGGCTC | -0.238
120 | CCTTCGAA | 0.0509
121 | CGAGCGTC | -0.0961
122 | TAGATTAA | 0.236
123 | AAGCCTCG | 0.0868
124 | GATCAGAC | -0.113
125 | ATTATTGC | 0.185

Row | Sequence | PBM E-score
126 | CCGCCCGC | 0.075
127 | CCTTGTAA | 0.167
128 | ACAATCAG | 0.147
129 | GGGTCTTA | -0.0616
130 | GTACGTTA | 0.0174
131 | ACCTCCGT | -0.0344
132 | CACTTAAC | -0.0179
133 | ATTATAAT | 0.253
134 | CTTGTGGC | -0.0933
135 | GTTTCGTA | 0.137
136 | GGGGCCCC | -0.2
137 | CTTCCGAC | -0.123
138 | CTTATACC | -0.0352
139 | AGTCTAAA | -0.143
140 | CCAGAAAC | 0.0755
141 | ACCAACTC | -0.122
142 | ACGCCAGT | -0.0382
143 | GAAGCAAA | -0.0659
144 | AAGCGGCA | 0.455
145 | AAGTTGCA | 0.0435
146 | ATCAACTC | -0.101
147 | CTCGAGAC | 0.062
148 | GTTATATA | 0.0217
149 | CCGCGCGA | 0.314
150 | TGTACGAA | 0.0629

Row | Sequence | PBM E-score
151 | CAGTAGGC | 0.124
152 | AACCCAAG | -0.0891
153 | CGGGGCGA | 0.149
154 | AGTACGAT | 0.136
155 | CTGATCTC | -0.0952
156 | CAAATCTC | 0.0287
157 | GCACAACC | -0.151
158 | ATTATGGA | -0.00328
159 | AAATGGGT | 0.00849
160 | CAGTTGCC | 0.119
161 | GGGGTTTA | -0.168
162 | AAGGGGCA | 0.00645
163 | ACCCTACT | -0.184
164 | CCCTGTGC | -0.00142
165 | GATGTTGA | -0.0867
166 | CTTCCTTA | -0.194
167 | CAAGCTGA | 0.007
168 | ATCGCTGC | -0.00912
169 | ATGCAATG | 0.074
170 | AGACAGGA | 0.0849
171 | CCGGGGGA | -0.263
172 | GAGGCATC | 0.296
